Among all 52,000 compounds or so, about 1,700 (3.3%) were called active. Cut-off read from the data, not from the text of the source: active = survival mostly below about 52% (no sharp cut-off); inactive = mostly above about 56%. The list shows a part of the results.
Each molecule was assayed on Wild type (assay: growth inhibition of S. aureus wild type versus tarO mutant, primary screen, teichoic acid synthesis inhibitors, RN4220, OD600 (AID 463173)). Details: S. aureus RN4220 wild type/DeltatarO growth, OD600, 18 h, hits give low values, screened at 18.75 µg/mL (by protocol).

Compound | survival
CCc1nnc(SCc2nc(-c3cccc(C)c3)oc2C)c2cc3sc(C)cc3n12 | inactive: 94%
COc1ccc(C(=O)Nc2cc(NC(=O)c3ccco3)ccc2OC)cc1Cl | inactive: 69%
O=C(CSc1nccn1-c1ccc(F)cc1)Nc1cccc2ccccc12 | inactive: 94%
CC(=O)Oc1ccccc1C(=O)N1CC(C)OC(C)C1 (centres undefined) | inactive: 97%
CCOC(=O)c1c(-c2ccccc2)oc2cc(Br)c(OCc3ccccc3)cc12 | inactive: 57%
CCn1c(=N)c(C(=O)NC2CCCC2)cc2c(=O)n3cc(C)ccc3nc21 | inactive: 67%
Cc1ccc(OCCCCn2nnc3sc4c(c3c2=O)CCC(C)C4)cc1 (centres undefined) | inactive: 94%
CC(C)CNS(=O)(=O)c1ccc(S(=O)(=O)N2CCCN(Cc3ccccc3)C2)cc1 | inactive: 97%
Cc1ccc(Cl)cc1Nc1nn2c(=O)c3ccc(C(=O)NC4CCC(C)CC4)cc3nc2s1 (centres undefined) | inactive: 143%
CN1CCN(C2(CNC(=O)COc3ccc(C(C)(C)C)cc3)CCCCC2)CC1 | inactive: 87%
O=C(Cn1c(=O)n(-c2ccc(F)c(Cl)c2)c(=O)c2sc3ccccc3c21)NC1CCCCC1 | inactive: 82%
Cc1ccc(NC(=O)C2CCCN(S(=O)(=O)c3cccc4nsnc34)C2)c(C)c1 (centres undefined) | inactive: 74%
CC(=O)N(Cc1ccccc1)Cc1cc2cc(C)ccc2n2nnnc12 | inactive: 107%
CCN(CC)S(=O)(=O)c1ccc2c(c1)N(CC(=O)NCCCN1CCN(c3cc(C)ccc3C)CC1)C(=O)CO2 | inactive: 121%
CCOc1ccc(C(=O)NCCc2csc(-c3cccnc3)n2)cc1 | inactive: 72%
CCNC(=O)C1CCCN(c2nn3cc(-c4ccc(C)cc4)nc3s2)C1 (centres undefined) | inactive: 83%
CC(C)c1ccc(CNCCSc2nnnn2-c2ccccc2)cc1 | inactive: 80%
CCOCc1[nH]c(=S)[nH]c(=O)c1Cc1ccc(OCC)cc1 | inactive: 107%
CC(C)c1ccc(NC(=O)CN2CCC(n3nnc4ccccc43)CC2)cc1 | inactive: 80%
Cc1cc(C)cc(NC(=O)C2CCN(c3nc4ccccc4nc3C(F)(F)F)CC2)c1 | inactive: 74%
CCOc1ccc(-n2nc3ccc(NC(=O)COc4ccccc4)cc3n2)cc1 | inactive: 90%
CCC(C)S(=O)(=O)c1oc(-c2ccc(F)cc2)nc1S(=O)(=O)c1ccc(F)cc1 (centres undefined) | inactive: 49%
Cc1scc(-c2ccccc2)[n+]1CCO | inactive: 109%

Compound | survival
CCc1ccc(NC(=O)Cn2c(=O)n(CCC(=O)NCCc3ccc(OC)c(OC)c3)c(=O)c3ccccc32)cc1 | inactive: 102%
CN(Cc1ccccc1)C(=O)c1ccc(CSc2nc3cccnc3n2Cc2ccccc2)cc1 | inactive: 130%
Cc1cccc(N2CCN(C(=O)Cc3c(C(=O)O)c(C)cn3C)CC2C)c1 (centres undefined) | inactive: 73%
COC(=O)c1cc2c(ccn2-c2ccc(F)cc2)n1CC1CCCCC1 | inactive: 105%
COc1ccc(N2CCN(C(=O)C3CCCN(S(=O)(=O)c4ccc5c(c4)oc(=O)n5C)C3)CC2)cc1 (centres undefined) | inactive: 89%
CCC(=O)NCCc1sc2nc(-c3ccc(OC)cc3)nn2c1C | inactive: 77%
COC(=O)c1c(NC(=O)COc2ccc(C(C)C)cc2)sc2c1CCCC2 | inactive: 51%
COc1ccc(C2CC(=O)Nc3c2c(C)nn3-c2nc(C)cc(C)n2)c(OC)c1OC (centres undefined) | inactive: 85%
COc1ccccc1CCNC(=O)C1(c2cccs2)CCOCC1 | inactive: 71%
CCc1cccc(NC(=O)CCn2nc(C)cc2C)c1 | inactive: 77%
COc1ccc(OC)c(NC(=O)c2nnn(CC(=O)Nc3ccc(C(C)C)cc3)c2N)c1 | inactive: 45%
CCC(C)(C)Nc1ncccc1C(=O)O | inactive: 121%
COc1ccc(NC(=O)Cn2cnc3c(nc4n3CCCCC4)c2=O)cc1Cl | inactive: 72%
CCCS(=O)(=O)Nc1cccc(-c2cn3ccsc3n2)c1 | inactive: 159%
Cc1cccc(CSc2nc3ccncc3n2CC(=O)N(C)C2CCCCC2)c1 | inactive: 88%
COc1ccc(CCNC(=O)c2ccc3nc(CCc4ccccc4)oc3c2)cc1OC | active: 10%
COc1ccc(NC(=O)Cn2c(=O)oc3cc(S(=O)(=O)N4CCCC4)ccc32)cc1OC | inactive: 79%
Cc1ccc(NC(=O)c2ccc(-c3ccccc3)s2)cc1 | inactive: 85%
Cc1ccc(N2C(=O)CSC23C(=O)N(CC(=O)NCCc2ccccc2)c2ccccc23)cc1 (centres undefined) | inactive: 74%
CCC1CN(C(=O)N2CCC(C(=O)NCc3cccs3)CC2)c2ccccc2O1 (centres undefined) | inactive: 88%
N#CC1=C(N)Oc2n[nH]c(CSc3ccccc3)c2C1Cc1ccccc1 (centres undefined) | inactive: 106%
O=c1oc2c(CN3CCOCC3)c(O)ccc2cc1-c1ccccc1 | inactive: 80%
COc1ccc(N2CCN(C(=O)c3noc4c3CCCCC4)CC2)cc1 | inactive: 68%

Compound | survival
O=C(Nc1ccc2oc(-c3ccc(Br)cc3)nc2c1)c1cc2ccccc2o1 | inactive: 76%
COc1cccc(CNCc2c(C(=O)O)n(Cc3ccc(C)cc3)c3cc(C)ccc23)c1OC | inactive: 106%
CC(=O)c1ccc(NC(=O)c2sc(-n3nc(C)c(Cc4ccc5c(c4)OCO5)c3C)nc2C)cc1 | inactive: 81%
CCC1CCCCN1CCCNC(=O)c1ccc2c(c1)N(Cc1cccc(Cl)c1)C(=O)c1ccccc1S2(=O)=O (centres undefined) | inactive: 65%
Cc1nnc(NC(=O)CSc2nc3c([nH]c4ccccc43)c(=O)n2-c2cccc(Cl)c2)s1 | inactive: 71%
COc1ccc(-c2nc3ccccc3o2)cc1NC(=O)c1cc(Br)ccc1OC | inactive: 66%
COc1ccc(C)cc1NC(=O)NCCn1nnc2cc(S(=O)(=O)N(C)C)ccc21 | inactive: 67%
O=C(NCCc1nc2ccccc2n1Cc1ccc(Cl)cc1)c1ccccc1 | inactive: 91%
CCOC(=O)c1ccccc1NC(=O)c1sc2nc(-c3ccc(F)cc3)cn2c1C | inactive: 74%
Cc1ccc(C(=O)OCc2cc(=O)n3nc(CC(C)C)sc3n2)cc1 | inactive: 127%
COc1ccc(CCNC(=O)c2cnc3sc(N4CCCCCC4)nn3c2=O)cc1 | inactive: 72%
Cc1ccc2occ(CC(=O)Nc3c(C)cccc3C)c2c1 | inactive: 113%
CCCN(C(=O)c1ccc2c(=O)n3c(nc2c1)CCCCC3)c1cccc(Cl)c1 | inactive: 85%
Cc1cc(C)cc(NCc2nnc3n2CCCCC3)c1 | inactive: 85%
Cc1cccc(C)c1NC(=O)CCSCCc1ccccn1 | inactive: 75%
COc1cn(CC(=O)Nc2ccc(C)cc2)c(CN2CCCCC2)cc1=O | inactive: 73%
COc1ccc(OCC(=O)N2CCN(C(=O)c3ccc(OC)c(OC)c3)CC2)cc1 | inactive: 134%
COc1ccccc1CN1CCC(CNC(=O)c2cnn(-c3cccc(Cl)c3)c2C2CCN(C(=O)OC(C)(C)C)CC2)CC1 | inactive: 88%
Cc1c(NS(=O)(=O)c2ccc(C(C)(C)C)cc2)c(=O)n(-c2ccccc2)n1C | inactive: 62%
CC(=O)N1CCc2cc(Br)cc(S(=O)(=O)CCC(=O)NCc3ccc(F)cc3)c21 | inactive: 73%
O=C(CCNS(=O)(=O)c1ccc2c(c1)CCN2C(=O)C1CC1)Nc1ccc(Cl)cc1 | inactive: 71%
COCC(C)NCc1ccccc1OC (centres undefined) | inactive: 110%
Cc1cc2c(cc1S(=O)(=O)NCc1ccc(F)cc1)OCC(=O)N2 | inactive: 82%

Compound | survival
Cc1cccc(NC(=O)CN2C(=O)C(c3ccc(F)cc3)=NC23CCCCCC3)c1C | inactive: 73%
COc1ccc(NC(=O)CN2C(=O)COc3ccc(S(=O)(=O)NC4CCCC4)cc32)cc1OC | inactive: 71%
COc1ccc(C(=O)Nc2ccccc2)cc1 | inactive: 107%
O=C(c1ccccc1)n1nc(-c2ccc(Cl)cc2)nc1NCc1ccco1 | active: 25%
CCOC(=O)c1cc2c(=O)n3ccccc3nc2n(CCOC)c1=NC(=O)c1c(-c2c(F)cccc2Cl)noc1C | inactive: 127%
CSc1ccc(CCNC(=O)Cn2ncc3c([nH]c4ccccc43)c2=O)cc1 | inactive: 69%
Cc1ccc(C2C(C#N)=C(N)SC(N)=C2C#N)c(C)c1 | inactive: 116%
Cc1ccc(-n2ncc3c(NC4CCCCC4)ncnc32)cc1C | inactive: 67%
COc1ccccc1C(=O)NC(=O)Nc1ccc(-c2cc(C(F)(F)F)nn2-c2ccccc2)cc1 | active: 5%
CCOc1ccc2c(c1)NC(c1ccc(OCC)c(OCC)c1)=NC(c1ccc(F)cc1)=N2 | inactive: 81%
CCc1ccc(N(CC)C(=O)c2cn(C)c(=O)c3cc(OC)c(OC)cc23)cc1 | inactive: 148%
CCc1ccc(C(=O)c2cn(CC(=O)Nc3ccc4c(c3)OCO4)c3ccc(Cl)cc3c2=O)cc1 | inactive: 79%
Cc1cc(=O)[nH]c2c(C)c(Cl)ccc12 | inactive: 108%
Cc1ccc(NC(=O)Cn2nc(C(F)(F)F)c3c2CCCC3)cc1 | inactive: 126%
CCN(CC)c1ccc(NC(=O)C2CCN(S(=O)(=O)c3c(C)noc3/C=C/c3ccccc3F)CC2)c(C)c1 | inactive: 138%
CC(C)(C)C1CCc2c(sc3nc(-c4cc5cc(Cl)ccc5oc4=O)[nH]c(=O)c23)C1 (centres undefined) | inactive: 84%
CCOc1ccc(CCNC(=O)c2c3c(nc4ccccc24)C(=O)N(C2CCCCC2)C3)cc1 | inactive: 68%
CCn1c(CNC(=O)c2ccc(OC)cc2)nnc1SCC(=O)Nc1cccc(C)c1 | inactive: 119%
Cc1ccc(S(=O)(=O)N2CCCc3cc(NC(=O)c4ccc(Cl)cc4)ccc32)cc1 | inactive: 77%
Cc1ccc(S(=O)(=O)NCCc2nnc3ccc(SCC(=O)Nc4c(C)cc(C)cc4C)nn23)cc1 | inactive: 86%
